Test results from article PMC11200990.
No constants are given. Whether binding was seen depends on the method and setting. In cells and extracts the contact can be indirect. Some entries that bind do so weakly or less than the wild type. Blank lines part the entries; values can stand above or below the substance they belong to.

Sequences of proteins named here, by UniProt entry; tags and fusion partners are left off. A change or cut given only in a name is not applied to a line headed by its entry. Residues count along the entry.
UniProt Q15109, residues 23-404: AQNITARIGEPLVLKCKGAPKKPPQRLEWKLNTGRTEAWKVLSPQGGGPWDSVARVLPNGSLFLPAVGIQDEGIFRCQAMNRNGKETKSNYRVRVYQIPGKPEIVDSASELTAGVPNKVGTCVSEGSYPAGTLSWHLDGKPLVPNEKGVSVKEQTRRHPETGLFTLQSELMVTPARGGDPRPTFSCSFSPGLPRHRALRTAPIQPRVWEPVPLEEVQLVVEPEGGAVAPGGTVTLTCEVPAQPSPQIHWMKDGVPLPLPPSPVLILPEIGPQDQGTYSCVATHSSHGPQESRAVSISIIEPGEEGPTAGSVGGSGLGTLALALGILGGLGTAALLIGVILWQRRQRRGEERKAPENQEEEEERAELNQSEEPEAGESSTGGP
UniProt O60603: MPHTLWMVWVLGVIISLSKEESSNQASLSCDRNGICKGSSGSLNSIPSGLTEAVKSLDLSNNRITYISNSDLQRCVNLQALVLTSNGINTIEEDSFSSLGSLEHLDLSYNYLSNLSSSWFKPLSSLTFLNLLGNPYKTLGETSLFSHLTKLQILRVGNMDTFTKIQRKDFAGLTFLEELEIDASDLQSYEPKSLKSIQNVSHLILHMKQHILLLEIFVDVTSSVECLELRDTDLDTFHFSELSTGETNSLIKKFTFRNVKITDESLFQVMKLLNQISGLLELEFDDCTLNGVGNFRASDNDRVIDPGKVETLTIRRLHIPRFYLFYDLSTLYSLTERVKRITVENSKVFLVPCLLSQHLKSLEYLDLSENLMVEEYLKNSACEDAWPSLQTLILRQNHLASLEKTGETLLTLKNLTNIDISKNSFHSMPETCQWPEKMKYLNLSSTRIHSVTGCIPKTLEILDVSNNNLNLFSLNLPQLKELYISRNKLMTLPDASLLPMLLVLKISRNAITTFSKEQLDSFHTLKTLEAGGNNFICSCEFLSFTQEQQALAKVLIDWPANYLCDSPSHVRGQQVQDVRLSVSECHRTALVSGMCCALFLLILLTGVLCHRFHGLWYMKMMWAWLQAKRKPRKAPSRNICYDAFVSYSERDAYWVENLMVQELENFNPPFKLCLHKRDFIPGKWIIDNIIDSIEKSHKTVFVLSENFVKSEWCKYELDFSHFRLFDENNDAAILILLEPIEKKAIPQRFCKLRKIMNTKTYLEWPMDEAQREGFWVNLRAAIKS
UniProt P05161, residues 1-157: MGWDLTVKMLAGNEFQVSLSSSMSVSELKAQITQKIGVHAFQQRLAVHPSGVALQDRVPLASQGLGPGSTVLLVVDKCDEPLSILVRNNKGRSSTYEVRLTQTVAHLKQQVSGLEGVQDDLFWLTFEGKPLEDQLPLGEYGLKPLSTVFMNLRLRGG
UniProt P09429: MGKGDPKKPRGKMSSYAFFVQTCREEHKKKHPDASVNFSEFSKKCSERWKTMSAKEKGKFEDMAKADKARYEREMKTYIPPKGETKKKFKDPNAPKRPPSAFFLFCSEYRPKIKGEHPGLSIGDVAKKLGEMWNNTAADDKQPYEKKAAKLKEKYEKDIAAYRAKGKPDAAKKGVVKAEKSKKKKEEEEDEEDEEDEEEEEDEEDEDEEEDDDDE

Assays:
[1] = target: Receptor of advanced glycosylation end-product (RAGE) (human (endogenous in SCC25 and FaDu)) (UniProt Q15109); experiment: co-IP; co-immunoprecipitation of extracellular ISG15 or the positive control HMGB1 with CD11a and RAGE (Fig. S6H); cells, constructs and IP antibody not told in the text shown
[2] = target: Receptor of advanced glycosylation end-product (RAGE) (human (endogenous in SCC25 and FaDu)) (UniProt Q15109); experiment: co-IP; SCC25 and FaDu cells treated with recombinant GST-ISG15 alone or with HMGB1 for 2 h; GST-ISG15 pulled down by IP (Protein A/G magnetic beads with antibody, 4 C overnight); western blot for RAGE and CD11a; only the binder purified
[3] = target: Receptor of advanced glycosylation end-product (RAGE) (human (endogenous in SCC25 and FaDu)) (UniProt Q15109); experiment: co-IP; SCC25 and FaDu cells treated with recombinant His-ISG15 for 2 h (SCC25 also pre-treated with 10 uM FPS-ZM1 for 1 h); His-ISG15 pulled down by IP; western blot for RAGE and CD11a; only the binder purified
[4] = target: Receptor of advanced glycosylation end-product (RAGE) (human (endogenous in SCC25 and FaDu)) (UniProt Q15109); experiment: co-IP; sequential IP: FaDu cells treated with recombinant His-ISG15, surface proteins biotinylated (EZ-Link Sulfo-NHS-SS-Biotin; un-biotinylated cells as control), lysed; anti-His magnetic beads 4 C overnight, glycine elution (pH 2.5), then streptavidin magnetic beads 4 C 4 h; western blot for CD11a, TLR2 and RAGE; only the binder purified
[5] = target: Toll-like receptor 2 (human (endogenous in FaDu)) (UniProt O60603); experiment: as above
[6] = target: Receptor of advanced glycosylation end-product (RAGE) (human (endogenous in SCC25 and FaDu)) (UniProt Q15109); experiment: co-IP; same system as a4 with the targets of IP and western blot switched: CD11a and RAGE pulled down, respectively, His-ISG15 detected by western blot (Fig. S6I); only the binder purified
[7] = target: T1, CD11a (integrin receptor LFA-1) (human (endogenous in SCC25 and FaDu)) (UniProt P20701); experiment: co-IP; co-immunoprecipitation of extracellular ISG15 or the positive control HMGB1 with CD11a and RAGE (Fig. S6H); cells, constructs and IP antibody not told in the text shown
T1 sequence: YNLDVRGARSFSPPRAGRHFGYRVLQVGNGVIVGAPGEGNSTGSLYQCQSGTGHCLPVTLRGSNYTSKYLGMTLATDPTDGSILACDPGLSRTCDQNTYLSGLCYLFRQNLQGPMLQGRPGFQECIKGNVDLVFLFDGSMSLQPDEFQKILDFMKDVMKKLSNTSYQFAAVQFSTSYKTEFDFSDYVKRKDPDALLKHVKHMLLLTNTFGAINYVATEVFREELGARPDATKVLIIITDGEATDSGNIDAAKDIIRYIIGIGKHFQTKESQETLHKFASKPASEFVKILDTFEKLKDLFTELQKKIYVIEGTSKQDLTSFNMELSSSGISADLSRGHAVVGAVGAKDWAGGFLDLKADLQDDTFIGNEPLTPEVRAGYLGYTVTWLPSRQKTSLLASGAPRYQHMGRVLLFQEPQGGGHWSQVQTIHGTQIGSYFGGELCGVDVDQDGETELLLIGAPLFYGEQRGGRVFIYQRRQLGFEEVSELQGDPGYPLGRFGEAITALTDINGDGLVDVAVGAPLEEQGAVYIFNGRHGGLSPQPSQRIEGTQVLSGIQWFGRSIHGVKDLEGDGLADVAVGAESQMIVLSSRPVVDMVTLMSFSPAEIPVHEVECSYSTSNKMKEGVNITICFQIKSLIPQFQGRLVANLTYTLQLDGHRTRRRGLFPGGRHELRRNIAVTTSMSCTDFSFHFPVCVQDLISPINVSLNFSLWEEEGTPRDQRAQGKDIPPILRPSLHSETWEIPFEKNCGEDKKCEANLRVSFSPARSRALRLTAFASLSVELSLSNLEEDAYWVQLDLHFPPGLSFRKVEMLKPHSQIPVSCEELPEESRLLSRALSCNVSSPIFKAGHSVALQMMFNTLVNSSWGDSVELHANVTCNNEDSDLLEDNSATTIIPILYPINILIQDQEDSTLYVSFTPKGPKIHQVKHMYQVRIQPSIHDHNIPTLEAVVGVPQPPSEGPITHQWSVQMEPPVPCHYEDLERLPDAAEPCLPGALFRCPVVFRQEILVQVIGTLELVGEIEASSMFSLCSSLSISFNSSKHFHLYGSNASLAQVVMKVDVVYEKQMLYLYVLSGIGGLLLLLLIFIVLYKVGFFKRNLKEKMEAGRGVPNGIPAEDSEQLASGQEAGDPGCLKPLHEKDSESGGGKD

binding [1]: binds
Substance: Extracellular ISG15 (as used in the co-IP of Fig. S6H) (from UniProt P05161 1-157)

binding [2]: binds
Substance: Human recombinant GST-ISG15 (from UniProt P05161 1-157)

binding [3]: binds
binding [4]: binds
binding [5]: no binding
binding [6]: binds
Substance: Human recombinant His6-ISG15 (from UniProt P05161 1-157)

binding [7]: no binding
binding [1]: binds
Substance: Recombinant human HMGB1 (His Tag) (from UniProt P09429 1-215)
